Results: the supplement of paper PMC12217912
The list shows a part of the results. The full chains were built here from the parent and the listed change. Inactive controls read about 0.05.

B1: TEV protease; numbered along this chain (parent)
chain: MGESLFKGPRDYNPISSSICHLTNESDGHTTSLYGIGFGPFIITNKHLFRRNNGTLVVQSLHGVFKVKDTTTLQQHLVDGRDMIIIRMPKDFPPFPQKLKFREPQREERICLVTTNFQTKSMSSMVSDTSCTFPSGDGIFWKHWIQTKDGQCGSPLVSTRDGFIVGIHSASNFTNTNNYFTSVPKNFMELLTNQEAQQWVSGWRLNADSVLWGGHKVFMVKPEEPFQPVKEATQL

Variants of: B1
Assay: raw area under fraction-flipped curve 0-4 h after induction (AUC4h, not background-subtracted), DNA-recorder readout of cleavage of the substrate (dimensionless); higher = more cleavage of the substrate by the protease variant
Details: temperature: 34 °C; time window: 0-4 h after rhamnose induction
Procedure: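 In vivo DNA recorder in E. coli TOP10(DE3) ΔrhaA at 34 °C. Each TEVp single-site mutant (parent TEVp 0) is paired with a single-site variant of the 7-mer TEVs (canonical ENLYFQ|S). The substrate sits between flexible linkers in a Bxb1-sfGFP-TEVs-SsrA fusion, so cleavage stabilises Bxb1 and speeds flipping of a recombination array, read by NGS. The value is the raw area under the fraction-flipped curve over 0-4 h after rhamnose induction (AUC4h), with ≥20 reads per time point. It is not background-subtracted; inactive controls average about 0.047.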
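Further: Bxb1 expression induced with 0.2% (w/v) L-rhamnose at OD600 near 0.5, cultures sampled hourly, flipped fraction per protease–substrate barcode pair counted by paired-end Illumina sequencing.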

Row | Variant | area with substrate ENLYDQS | area with substrate ENLYEQS | area with substrate ENLYGQS | area with substrate ENLYHQS | area with substrate ENLYKQS | area with substrate ENLYNQS | area with substrate ENLYRQS | area with substrate ENLYSQS | area with substrate ENLYYQS | area with substrate ENLYQQS | area with substrate ENLYVQS | area with substrate ENLYWQS | area with substrate ENLYIQS | area with substrate ENLYTQS | area with substrate ENLYMQS | area with substrate ENLYPQS | area with substrate ENLYLQS
1 | MGESLFKGPRDYNPISSSICHLTNESDGHTTSLYGIGFGPFIITNKHLFRRNNGTLVVQSLHGVFKVKDTTTLQQHLVDGRDMIIIRMPKDFPPFPQKLKFREPQREERICLVTTNFQTKSMSSMVSDTSCTFPSGDGIFWKHWIQTKDGQCGSPLVSTRDGFIVGISSASNFTNTNNYFTSVPKNFMELLTNQEAQQWVSGWRLNADSVLWGGHKVFMVKPEEPFQPVKEATQL [H168S] | 0.0523 | 0.0574 | 0.0612 | 0.0479 | 0.0282 | 0.068 | 0.0699 | 0.0605 | 0.0746 | – | – | – | – | – | – | – | –
2 | MGESLFKGPRDYNPISSSICHLTNESDGHTTSLYGIGFGPFIITNKHLFRRNNGTLVVQSLHGVFKVKDTTTLQQHLVDGRDMIIIRMPKDFPPFPQKLKFREHQREERICLVTTNFQTKSMSSMVSDTSCTFPSGDGIFWKHWIQTKDGQCGSPLVSTRDGFIVGIHSASNFTNTNNYFTSVPKNFMELLTNQEAQQWVSGWRLNADSVLWGGHKVFMVKPEEPFQPVKEATQL [P104H] | 0.0527 | 0.0437 | 0.0363 | 0.0499 | – | – | 0.0506 | – | – | 0.0481 | 0.0523 | 0.0466 | – | – | – | – | –
3 | MGESLFKGPRDYNPISSSICHLTNESDGHTTSLYGIGFGPFIITNKHLFRRNNGTLVVQSLHGVFKVKDTTTLQQHLVDGRDMIIIRMPKDFPPFPQKLKFREKQREERICLVTTNFQTKSMSSMVSDTSCTFPSGDGIFWKHWIQTKDGQCGSPLVSTRDGFIVGIHSASNFTNTNNYFTSVPKNFMELLTNQEAQQWVSGWRLNADSVLWGGHKVFMVKPEEPFQPVKEATQL [P104K] | 0.0794 | – | 0.0492 | – | – | 0.0364 | – | – | – | – | – | – | 0.0502 | 0.0461 | – | – | –
4 | MGESLFKGPRDYNPISSSICHLTNESDGHTTSLYGIGFGPFIITNKHLFRRNNGTLVVQSLHGVFKVKDTTTLQQHLVDGRDMIIIRMPKDFPPFPQKLKFREPQREERICLVTTNFQTKSMSSMVSDTSCTFPSGDGIFWKHWIQTKDGQCGSPLVSTRDGFIVGIHSASNFTNTYNYFTSVPKNFMELLTNQEAQQWVSGWRLNADSVLWGGHKVFMVKPEEPFQPVKEATQL [N177Y] | 0.0489 | – | – | – | – | 0.0571 | – | 0.0527 | – | – | 0.0675 | 0.0491 | – | – | 0.0641 | – | –
5 | MGESLFKGPRDANPISSSICHLTNESDGHTTSLYGIGFGPFIITNKHLFRRNNGTLVVQSLHGVFKVKDTTTLQQHLVDGRDMIIIRMPKDFPPFPQKLKFREPQREERICLVTTNFQTKSMSSMVSDTSCTFPSGDGIFWKHWIQTKDGQCGSPLVSTRDGFIVGIHSASNFTNTNNYFTSVPKNFMELLTNQEAQQWVSGWRLNADSVLWGGHKVFMVKPEEPFQPVKEATQL [Y12A] | 0.0726 | 0.0691 | 0.061 | 0.066 | 0.0783 | 0.0848 | 0.151 | 0.07 | 0.0821 | – | 0.141 | – | – | 0.0616 | 0.084 | 0.0718 | –
6 | MGESLFKGPRDYNPISSSICHLTNESDGHTTSLYGIGFGPFIITNKHLFRRNNGTLVVQSLHGVFKVKDTTTLQQHLVDGRDMIIIRMPKDFPPFPQKLKFREPQREERICLVTTNFQTKSMSSMVSDTRCTFPSGDGIFWKHWIQTKDGQCGSPLVSTRDGFIVGIHSASNFTNTNNYFTSVPKNFMELLTNQEAQQWVSGWRLNADSVLWGGHKVFMVKPEEPFQPVKEATQL [S130R] | 0.067 | 0.138 | – | 0.0481 | 0.0648 | 0.0675 | 0.0632 | 0.0704 | – | 0.0616 | 0.108 | 0.0597 | – | – | – | 0.0797 | –
7 | MGESLFKGPRDYNPISSSICHLTNESDGHTTSLYGIGFGPFIITNKHLFRRNNGTLVVQSLHGVFKVKDTTTLQQHLVDGRDMIIIRMPKDFPPFPQWLKFREPQREERICLVTTNFQTKSMSSMVSDTSCTFPSGDGIFWKHWIQTKDGQCGSPLVSTRDGFIVGIHSASNFTNTNNYFTSVPKNFMELLTNQEAQQWVSGWRLNADSVLWGGHKVFMVKPEEPFQPVKEATQL [K98W] | 0.0534 | 0.0701 | 0.0657 | 0.0773 | 0.0485 | 0.0797 | 0.0563 | 0.0593 | – | 0.0471 | – | 0.0761 | 0.103 | 0.0903 | 0.0952 | 0.0775 | 0.106
8 | MGESLFKGPRDYNPISSSICHLTNESDGHTTSLYGIGFGPFIITNKHLFRRNNGTLVVQSLHGVFKVKDTTTLQQHLVNGRDMIIIRMPKDFPPFPQKLKFREPQREERICLVTTNFQTKSMSSMVSDTSCTFPSGDGIFWKHWIQTKDGQCGSPLVSTRDGFIVGIHSASNFTNTNNYFTSVPKNFMELLTNQEAQQWVSGWRLNADSVLWGGHKVFMVKPEEPFQPVKEATQL [D79N] | 0.0451 | 0.0868 | 0.0673 | – | 0.0612 | 0.059 | 0.0567 | 0.0667 | – | 0.0624 | 0.0664 | 0.0888 | 0.0885 | – | – | – | –
9 | MGESLFKGPRDYNPISSSICHLTNESDGHTTSLYGIGFGPFIITNKHLFRRNNGTLVVQSLHGVFKVKDTTTLQQHLVDGRDMIIIRMPKDFPPFPQKLKFREPQREERICLVTTNFQTKSMSSMVSDTSCTFPSGDGIFWKHWIQTKDGQCGSPLVSTEDGFIVGIHSASNFTNTNNYFTSVPKNFMELLTNQEAQQWVSGWRLNADSVLWGGHKVFMVKPEEPFQPVKEATQL [R160E] | 0.0671 | 0.0701 | 0.0787 | 0.073 | 0.0238 | 0.0683 | 0.0861 | 0.085 | – | 0.048 | 0.123 | – | 0.0898 | – | 0.0929 | 0.0743 | –
10 | MGESLFKGPRDYNPISSSICHLTNESDGHTTSLYGIGFGPFIITNKHLFRRNNGTLVVQSLHGVFKVKDTTTLQQHLVDGRDMIINRMPKDFPPFPQKLKFREPQREERICLVTTNFQTKSMSSMVSDTSCTFPSGDGIFWKHWIQTKDGQCGSPLVSTRDGFIVGIHSASNFTNTNNYFTSVPKNFMELLTNQEAQQWVSGWRLNADSVLWGGHKVFMVKPEEPFQPVKEATQL [I86N] | 0.0581 | 0.0485 | – | – | – | 0.0504 | – | – | – | 0.0429 | 0.038 | 0.0425 | 0.0535 | – | 0.0518 | – | –
